Key:
[1] = commercially available fluorochrome used as standard; cited from earlier work
[2] = Fluorescence emission maxima and quantum yields of the dyes (fluorophotometer); assay type: physicochemical
Protocol: About 20 mg of each fluorochrome dye was dissolved in 100 ml of deionized water. The absorbance was measured individually in three dilutions of the stock solution in deionized water or in 95% ethanol, using a Hitachi U-3000 spectrophotometer to determine the extinction coefficient. The fluorescence emission maxima and intensities of the dyes were obtained using a Hitachi F-4500 fluorophotometer, using dilute solutions in water and exciting at both the main absorption peak as well the short-wavelength shoulder of the main absorption peak. In the cases of NIR2, NIR4, NIR6, and NIR8, the quantum yields were calculated relative to a standard solution of the commercially available fluorochrome Cy5.5 (Amersham-Pharmacia, Piscataway, N.J.) with quantum yield of 0.29. The calculations for NIR1, NIR3, NIR5, and NIR7 were performed relative to a standard solution of another commercially available fluorochrome, Cy7 (Amersham-Pharmacia), with a quantum yield of 0.28.

[3] = Hydrolysis of active ester in water by HPLC; assay type: physicochemical; settings: 20 days in water at 4° C.
Protocol: The cyanine dyes NIR1-NIR4 were converted to reactive N-succinyl esters using diisopropylcarbodiimide (DIPCDI) and N-hydroxysuccinimide in the presence of N-methylmorpholine in dimethylformamide (DMF) according to the reaction scheme shown in FIG. 5A. The formation of active ester was not only confirmed by reverse phase HPLC, but also by reaction with benzylamine. […] Elution time for NIR2 and its active ester were 27.1 and 29.0 min, respectively. […] The active ester was remarkably stable in water. According to PLC analysis, less than 10% of the active ester was hydrolyzed over a period of 20 days in water at 4° C.

| Compound | Stokes shift of the fluorescence emission maxima [2] | further results |
| --- | --- | --- |
| CCN1C(=CC=CC=CC=CC2=[N+](CCCCCC(=O)O)c3ccc(S(=O)(=O)O)cc3C2(C)C)C(C)(C)c2cc(S(=O)(=O)[O-])ccc21 [Cy7] | – | quantum yield of standard solution [1]: 0.28 |
| CC1(C)C(=CC=CC=CC=CC2=[N+](CCCCS(=O)(=O)[O-])c3ccc(S(=O)(=O)[O-])cc3C2(C)C)N(CCCCS(=O)(=O)[O-])c2ccc(C(=O)O)cc21.[K+].[K+] [NIR3] | 20 nm | – |
| Cy5.5 | – | quantum yield of standard solution [1]: 0.29 |
| CC[N+]1=C(C=CC=CC=CC=C2N(CCCCS(=O)(=O)[O-])c3ccc(C(=O)O)cc3C2(C)C)C(C)(C)c2c1ccc1c(S(=O)(=O)[O-])cc(S(=O)(=O)[O-])cc21.[K+].[K+] [NIR1] | 30 nm | – |
| CC[N+]1=C(C=CC=CC=C2N(CCCCS(=O)(=O)[O-])c3ccc(C(=O)O)cc3C2(C)C)C(C)(C)c2c1ccc1c(S(=O)(=O)[O-])cc(S(=O)(=O)[O-])cc21.[K+].[K+] [NIR2] | 30 nm | – |
| CC1(C)C(=C/C=C/C=C/C2=[N+](CCCCS(=O)(=O)[O-])c3ccc(S(=O)(=O)[O-])cc3C2(C)C)N(CCCCS(=O)(=O)[O-])c2ccc(C(=O)O)cc21.[K+].[K+] [NIR4] | 20 nm | – |
| CC[N+]1=C(C=CC=CC=C2N(CCCCS(=O)(=O)[O-])c3ccc(C(=O)ON4C(=O)CCC4=O)cc3C2(C)C)C(C)(C)c2c1ccc1c(S(=O)(=O)[O-])cc(S(=O)(=O)[O-])cc21.[K+].[K+] [NIR2 active ester] | – | active ester hydrolyzed [3]: less than 10% |

— patent publication US20050249668A1, “Nir-fluorescent cyanine dyes, their synthesis and biological use” (priority 2002, published 2005)
